# About 9,900 (2.8%) of roughly 350,000 compounds were called active. Inconclusive means that the source gave no clear call. Such entries were picked first, then a sample of the others. Calls follow the shape of the dose curve; as a rule, active = well fitted activation curve with a large enough effect; inconclusive = small, poorly fitted or top-dose-only effect; inactive = no such curve, though single readings can be large or run the other way. Potencies of inconclusive entries are left out as doubtful fits.
# Assay: A quantitative high throughput screen for small molecules that induce DNA re-replication in MCF 10a normal breast cells. Also: nearly all actives have a fitted effect of over 50% in size.
# Conditions: MCF 10A DNA re-replication, Hoechst nuclear intensity, 48 h; series mostly up to 46.1 µM
# Potency is read from the fitted curve at half-maximal effect; tags tell the direction and shape of the fitted curve.
row,Compound,Potency
1,NCCCC[C@H]1CNC(=S)N1CCCCC1CCCCC1,"inconclusive [activator, partial curve, poor fit]"
2,COc1cccc(NC(=O)COC(=O)c2cc(=O)c3ccccc3o2)c1,"inconclusive [activator, single point]"
3,N#Cc1ccc(OCC(=O)NC2=NCCS2)cc1,inactive
4,Cc1nn(Cc2ccccc2Cl)c2sc(C(=O)NCCCn3ccnc3)cc12,"inconclusive [activator, full curve, poor fit]"
5,c1ccc(-c2csc(CN3CCCCC3)n2)cc1,inactive
6,CSc1ccc(CCNC(=O)CN2C(=O)CCSc3ccccc32)cc1,inactive
7,Cc1[nH]c2ccc(C(=O)N3CCN(c4cccc(Cl)c4)CC3)cc2c1C,"inconclusive [activator, partial curve, poor fit]"
8,COc1ccc(N2CCN(S(=O)(=O)CCNC(=O)COc3ccccc3C)CC2)cc1,inactive
9,Cn1ncc2c(Nc3ccc(Br)cc3)nc(Nc3ccc(Br)cc3)nc21,"inconclusive [activator, single point]"
10,CN(C)S(=O)(=O)c1cccc(-c2nn(-c3ccccc3)cc2/C=C2\SC(=S)NC2=O)c1,"inconclusive [activator, single point]"
11,NC(=O)c1ccccc1NC(=O)COc1ccc2c(c1)OCO2,"inconclusive [activator, single point]"
12,Cc1cc(N=Nc2ccc(C)c(N=Nc3cc(C)c(N)cc3N)c2)c(N)cc1N,"inconclusive [activator, single point]"
13,CCn1c(CCCOc2ccc(Cl)cc2Cl)nnc1SCC(=O)Nc1cc(F)ccc1C,"inconclusive [activator, single point]"
14,N#Cc1c(NC(=O)CSc2n[nH]c(Cc3ccccc3)n2)oc(-c2ccccc2)c1-c1ccccc1,"inconclusive [activator, single point]"
15,COc1cc(/C=C2/C(=O)c3cccc([N+](=O)[O-])c3C2=O)c(Br)cc1O,"inconclusive [activator, single point]"
16,COc1cc2c(cc1NC(=O)c1cccc([N+](=O)[O-])c1)oc1ccccc12,"inconclusive [activator, full curve]"
17,CC(=O)c1cc(C#N)c(NCc2ccccc2)nc1C,"inconclusive [activator, single point]"
18,CN1CC=C2C(C#N)=C(N)C(C#N)(C#N)C(CCc3ccccc3)C2C1 (stereo not drawn),inactive
19,CCOC(=O)N1CCN(C(=O)CCSCCc2ccncc2)CC1,inactive
20,CC(C)CCNc1nc(-c2ccco2)c2c(c1C#N)CCCC2,active: 7.31 µM
21,COC(=O)c1ccccc1N/C=C1\CCc2c(c(C)nn2-c2ccccn2)C1=O,active: 8.2 µM
22,CC1CCCC(NC(=S)Nc2ccc(SC(F)F)cc2)C1C (stereo not drawn),"inconclusive [activator, single point]"
23,Cn1c(CSCCOc2ccccc2)n[nH]c1=S,inactive
24,Clc1ccc(CN2CCC(c3nc4ccc(Cl)cc4[nH]3)CC2)cc1,"inconclusive [activator, single point]"
25,Cc1ccc(S(=O)(=O)Cc2ccc(C(=O)O)o2)cc1,"inconclusive [activator, single point]"

row,Compound,Potency
1,COc1cccc(NC(=O)COC(=O)CNC(=O)C2CCCCC2)c1,inactive
2,Cc1cc(-c2ccc(C)c(S(=O)(=O)NCc3ccc(Br)cc3)c2)on1,"inconclusive [activator, single point]"
3,O=C(C1CC(=O)N(c2ccc3c(c2)OCCO3)C1)N1CCCC(C(F)(F)F)C1 (stereo not drawn),inactive
4,COc1ccccc1OC(=O)c1cc2ccccc2oc1=O,inactive
5,CCn1c2ccccc2c2cc(NC(=O)COC(=O)c3ccc(O)cc3)ccc21,"inconclusive [activator, single point]"
6,CC(C)C(=O)NNC(=O)CSc1nnnn1C(C)C,inactive
7,COc1cc(C2CC(c3cccs3)=NN2C(=O)CCl)ccc1OC(F)F (stereo not drawn),active: 16.4 µM
8,CC1CN(CC(O)COC(c2ccccc2)c2ccccc2)CC(C)O1 (stereo not drawn),"inconclusive [activator, partial curve, poor fit]"
9,NC(=O)CSc1nnc(-c2ccccc2F)n1C1CC1,"inconclusive [activator, partial curve, poor fit]"
10,O=C(c1ccc(COc2ccccc2Cl)o1)N1N=C(C(F)F)CC1(O)C(F)F (stereo not drawn),"inconclusive [activator, single point]"
11,Cc1cc(/C=C2\C(=N)N3N=C(CC(=O)N4CCOCC4)SC3=NC2=O)c(C)n1-c1ccccc1,inactive
12,NC(=O)SCC(=O)Nc1ccc(Cl)c(Cl)c1,"inconclusive [activator, single point]"
13,CCOc1ccccc1N1CCN(C(=O)c2cc3c(C)cc(C)cc3[nH]2)CC1,"inconclusive [activator, partial curve]"
14,Cn1c(=O)oc2cc(S(=O)(=O)Nc3ccc(O)cc3)ccc21,inactive
15,Cc1cccc(C)c1OCC(=O)N[C@@H](Cc1ccccc1)[C@@H](O)C[C@H](Cc1ccccc1)NC(=O)[C@H](C(C)C)N1CCCNC1=O,"inconclusive [activator, single point]"
16,CCOC(=O)c1[nH]c2ccc(Cl)cc2c1-c1ccccc1,"inconclusive [activator, single point]"
17,COc1cccc(C(=O)N2CCN=C2SC)c1,inactive
18,COc1ccc(CCNc2nc(=S)[nH]c3cc(OC)c(OC)cc23)cc1OC,inactive
19,O=C(Nc1ccc(Cl)cc1-c1nc2ccccc2s1)c1ccco1,"inconclusive [activator, full curve, poor fit]"
20,CCOc1cc(C(=O)Nc2ccc(S(=O)(=O)NC3=NCCCCC3)cc2)cc(OCC)c1OCC,inactive
21,CC(=O)c1ccc(N2CCN(C(=O)c3cc(-c4cccnc4)nc4ccc(Br)cc34)CC2)cc1,"inconclusive [activator, single point]"
22,NC(=NCCc1c[nH]c2ccccc12)NS(=O)(=O)c1ccc(F)cc1,inactive
23,CN(C(=O)c1ccccc1-c1ncc[nH]1)C1CCCN(Cc2ccccc2F)C1 (stereo not drawn),inactive
24,CC(=O)c1cccc(NC(=S)N2CCN(S(=O)(=O)c3ccc(F)cc3)CC2)c1,inactive
25,CCCOc1ccc(/C(O)=C2/C(=O)C(=O)N(c3ccccn3)C2c2ccc(OC)cc2)cc1C (stereo not drawn),"inconclusive [activator, single point]"

row,Compound,Potency
1,Cc1ccsc1/C=C1/CN(C)Cc2c1nc1ccccc1c2C(=O)O,inactive
2,Cc1cc(-n2c(SCC(=O)Nc3ccc(Br)cc3)nc3n[nH]c(C)c3c2=N)ccc1Cl,active: 3.26 µM
3,Fc1ccc(NC(=S)NC2CC3CCCC(C2)N3Cc2cccs2)cc1 (stereo not drawn),inactive
4,Cc1cnc(NC(=O)CCc2ccccc2)s1,active: 10.3 µM
5,COC(=O)c1sc2nc(SCc3ccccc3C)n(N)c(=O)c2c1C,inactive
6,CCn1nnc(NC(=O)c2ccc([N+](=O)[O-])o2)n1,active: 14.6 µM
7,Cc1cccc(OC(C)C(=O)N(Cc2cccs2)C2CCS(=O)(=O)C2)c1C (stereo not drawn),inactive
8,O=C(NCC(=O)N1CCN(Cc2ccccc2)CC1)c1ccc(Br)o1,inactive
9,COc1ccc(CC2(CO)CCN(Cc3cc4ccccc4o3)CC2)cc1,"inconclusive [activator, partial curve, poor fit]"
10,Cc1ccc(S(=O)(=O)N(C)C)cc1NC(=S)NC1CCCC(C)C1C (stereo not drawn),"inconclusive [activator, partial curve, poor fit]"
11,CCCc1ccc(-c2cc(C(=O)N3CCN(c4ccccn4)CC3)c3ccccc3n2)cc1,"inconclusive [activator, partial curve, poor fit]"
12,CCCCCn1c(=N)n(CC(O)COc2ccccc2OC)c2ccccc21 (stereo not drawn),"inconclusive [activator, single point]"
13,CN(Cc1ccc(C(F)(F)F)cc1)C(=O)C1CCC(=O)N(C2CC2)C1 (stereo not drawn),inactive
14,Cc1ccc(Cn2nc(C)c(NC(=O)c3cc(-c4ccco4)on3)c2C)cc1,"inconclusive [activator, single point]"
15,CC(C)(C)c1ccc(C(=O)Nc2ncn[nH]2)cc1,"inconclusive [activator, partial curve, poor fit]"
16,O=C(CCC(=O)c1ccc(-c2ccccc2)cc1)Nc1cccnc1,"inconclusive [activator, partial curve]"
17,O=C(CSc1ccc(Cl)cc1)Nc1cccc(NC(=O)c2ccco2)c1,"inconclusive [activator, single point]"
18,O=C(c1cccnc1)N1N=C2CCCCCC2C1(O)C(F)(F)F (stereo not drawn),inactive
19,CCOc1ccc(S(=O)(=O)N2CCCCC2)cc1NC(=O)Cc1cccs1,inactive
20,CC#CCN1C=C(C(=O)OCC)C(C)N(Cc2ccc(Br)cc2)S1(=O)=O (stereo not drawn),"inconclusive [activator, partial curve, poor fit]"
21,CCc1nc(Nc2ccc3c(c2)OCO3)c2oc3ccccc3c2n1,"inconclusive [activator, full curve, poor fit]"
22,CCN(CC(=O)Nc1ccccc1C(F)(F)F)C(=O)c1ccc(=O)n(Cc2ccccc2)n1,inactive
23,O=C(Cc1ccc(Cl)cc1Cl)Nc1ccc(OC(F)F)c(Cl)c1,"inconclusive [activator, partial curve, poor fit]"

# — PubChem BioAssay AID624296 (National Center for Advancing Translational Sciences (NCATS), 2012)
